These are yes or no findings as the source states them, for the method shown. Some binding calls cover weakened binding; strength is not graded here. For some assays here: Sequences can lack the tags named with a protein.
Legend:
[1] = target: laminin γ1 short arm fragment (γ1LN-LEa1-4) (Mus musculus) (UniProt P02468); experiment: AUC; sedimentation peaks of Net4-FL, Net4-ΔC and their complexes with γ1LN-LEa1-4; Supplementary Fig. 5e; both purified
[2] = target: laminin γ1 short arm fragment (γ1LN-LEa1-4) (Mus musculus) (UniProt P02468); experiment: SEC; analytical size-exclusion chromatography of single proteins and of mixtures; both purified
[3] = target: Recombinant human DCC/Fc chimera (human) (UniProt P43146); experiment: BLI; Octet RED96; Fc chimera proteins (2 μg/ml) loaded on anti-human Fc (AHC) biosensors; netrins 50 nM in PBS, 0.1% BSA, 0.02% Tween 20; 30 °C; both purified
[4] = target: Recombinant mouse neogenin/Fc chimera (mouse) (UniProt P97798); experiment: as above
[5] = target: Recombinant rat UNC5H2/Fc chimera (rat) (UniProt O08722); experiment: as above

Chains of the proteins cited; added tags and fusions are not shown. Lines headed by an entry give the natural chain unless they say otherwise; changes in a name come on top. Residues count along the entry.
UniProt P02468, residues 34-492: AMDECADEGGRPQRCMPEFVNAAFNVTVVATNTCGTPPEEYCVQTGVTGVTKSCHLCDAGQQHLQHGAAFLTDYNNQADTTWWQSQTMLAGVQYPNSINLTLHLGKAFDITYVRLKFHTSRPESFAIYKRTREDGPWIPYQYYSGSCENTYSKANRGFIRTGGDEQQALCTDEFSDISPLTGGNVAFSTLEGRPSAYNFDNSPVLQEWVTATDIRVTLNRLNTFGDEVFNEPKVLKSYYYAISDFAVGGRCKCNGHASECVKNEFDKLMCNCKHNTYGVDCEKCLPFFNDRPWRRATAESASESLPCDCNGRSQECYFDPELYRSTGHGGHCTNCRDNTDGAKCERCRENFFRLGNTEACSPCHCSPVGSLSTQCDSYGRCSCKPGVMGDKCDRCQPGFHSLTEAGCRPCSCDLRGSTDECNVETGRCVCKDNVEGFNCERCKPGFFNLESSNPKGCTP
UniProt P43146, residues 26-1097: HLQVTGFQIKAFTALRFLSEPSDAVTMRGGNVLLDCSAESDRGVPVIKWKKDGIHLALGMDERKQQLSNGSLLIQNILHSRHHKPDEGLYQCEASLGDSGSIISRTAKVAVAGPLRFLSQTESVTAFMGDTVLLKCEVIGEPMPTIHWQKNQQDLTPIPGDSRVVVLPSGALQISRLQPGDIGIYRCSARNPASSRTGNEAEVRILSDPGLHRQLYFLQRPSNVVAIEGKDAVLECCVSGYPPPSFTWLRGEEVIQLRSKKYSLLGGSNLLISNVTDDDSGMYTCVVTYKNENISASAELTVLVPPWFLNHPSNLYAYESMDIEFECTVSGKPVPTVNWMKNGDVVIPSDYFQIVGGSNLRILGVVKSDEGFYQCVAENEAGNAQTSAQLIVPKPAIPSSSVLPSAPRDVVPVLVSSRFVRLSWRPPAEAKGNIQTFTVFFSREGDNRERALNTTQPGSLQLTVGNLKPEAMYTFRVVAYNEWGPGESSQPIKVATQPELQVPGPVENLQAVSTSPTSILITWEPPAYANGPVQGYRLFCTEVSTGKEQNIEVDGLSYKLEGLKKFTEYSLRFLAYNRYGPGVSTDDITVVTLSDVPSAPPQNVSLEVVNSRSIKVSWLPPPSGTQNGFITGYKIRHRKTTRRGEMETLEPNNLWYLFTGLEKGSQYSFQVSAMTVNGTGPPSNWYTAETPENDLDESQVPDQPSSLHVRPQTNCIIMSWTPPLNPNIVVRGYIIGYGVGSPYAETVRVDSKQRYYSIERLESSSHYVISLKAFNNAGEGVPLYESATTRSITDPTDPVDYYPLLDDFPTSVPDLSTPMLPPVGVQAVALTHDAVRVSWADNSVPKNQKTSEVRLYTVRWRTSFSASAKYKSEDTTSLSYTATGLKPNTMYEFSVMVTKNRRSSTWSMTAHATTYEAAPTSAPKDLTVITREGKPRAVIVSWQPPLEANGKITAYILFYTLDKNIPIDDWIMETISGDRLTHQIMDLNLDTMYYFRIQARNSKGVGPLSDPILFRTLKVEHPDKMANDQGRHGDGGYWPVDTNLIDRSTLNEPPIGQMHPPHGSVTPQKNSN
UniProt P97798, residues 37-1136: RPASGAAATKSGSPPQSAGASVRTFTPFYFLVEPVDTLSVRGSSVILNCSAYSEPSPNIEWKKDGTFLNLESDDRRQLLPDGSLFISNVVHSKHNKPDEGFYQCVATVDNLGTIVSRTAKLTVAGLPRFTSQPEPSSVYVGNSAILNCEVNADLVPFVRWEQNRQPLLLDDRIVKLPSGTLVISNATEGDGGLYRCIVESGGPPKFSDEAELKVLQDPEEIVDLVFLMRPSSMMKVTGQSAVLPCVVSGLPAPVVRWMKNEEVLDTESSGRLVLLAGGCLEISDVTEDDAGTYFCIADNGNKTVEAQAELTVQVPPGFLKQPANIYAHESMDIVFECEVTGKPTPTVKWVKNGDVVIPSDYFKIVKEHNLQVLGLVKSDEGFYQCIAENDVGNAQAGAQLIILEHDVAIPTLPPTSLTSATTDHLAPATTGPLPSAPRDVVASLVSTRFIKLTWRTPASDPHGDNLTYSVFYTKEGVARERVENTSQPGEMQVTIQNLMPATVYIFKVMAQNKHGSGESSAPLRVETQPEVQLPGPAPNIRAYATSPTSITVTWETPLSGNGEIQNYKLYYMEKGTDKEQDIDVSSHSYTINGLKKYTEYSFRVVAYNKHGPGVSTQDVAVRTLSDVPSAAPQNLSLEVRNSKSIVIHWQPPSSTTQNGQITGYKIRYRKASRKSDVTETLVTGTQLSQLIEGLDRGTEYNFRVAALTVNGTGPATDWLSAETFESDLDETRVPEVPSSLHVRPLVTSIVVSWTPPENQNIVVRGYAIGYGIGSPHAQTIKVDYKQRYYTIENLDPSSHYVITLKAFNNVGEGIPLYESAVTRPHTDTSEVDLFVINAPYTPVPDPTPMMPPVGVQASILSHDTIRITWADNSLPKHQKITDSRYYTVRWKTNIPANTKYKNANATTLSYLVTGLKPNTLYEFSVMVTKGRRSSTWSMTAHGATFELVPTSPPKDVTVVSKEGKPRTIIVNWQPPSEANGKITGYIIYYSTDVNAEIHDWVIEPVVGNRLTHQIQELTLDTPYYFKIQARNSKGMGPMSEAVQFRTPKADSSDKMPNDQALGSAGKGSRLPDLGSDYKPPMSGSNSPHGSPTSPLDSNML
UniProt O08722, residues 27-377: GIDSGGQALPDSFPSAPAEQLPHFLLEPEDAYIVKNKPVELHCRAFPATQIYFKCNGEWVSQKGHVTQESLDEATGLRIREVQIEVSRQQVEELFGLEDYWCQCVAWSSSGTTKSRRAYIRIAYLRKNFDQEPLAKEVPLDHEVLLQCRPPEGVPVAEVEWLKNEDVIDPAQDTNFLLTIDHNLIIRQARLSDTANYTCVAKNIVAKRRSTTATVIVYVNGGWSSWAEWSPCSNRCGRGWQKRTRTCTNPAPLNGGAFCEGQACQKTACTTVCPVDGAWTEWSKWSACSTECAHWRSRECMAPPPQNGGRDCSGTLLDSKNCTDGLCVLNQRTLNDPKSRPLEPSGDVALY

B1: Net4 lacking the C-terminal domain (Net4-ΔC) (domain or fragment, Mus musculus, UniProt Q9JI33 20-462, looked up)
chain: LNGVAGANSRCEKACNPRMGNLALGRKLRADTMCGQNATELFCFYSENADLTCRQPKCDKCNAAHSHLAHPPSAMADSSFRFPRTWWQSAEDVHREKIQLDLEAEFYFTHLIMVFKSPRPAAMVLDRSQDFGKTWKPYKYFATNCSATFGLEDDVVKKGAICTSRYSNPFPCTGGEVIFRALSPPYDIENPYSAKVQEQLKITNLRVRLLKRQSCPCQINDLNAKPHHFMHYAVYDFIVKGSCFCNGHADQCLPVEGFRPIKAPGAFHVVHGRCMCKHNTAGSHCQHCAPLYNDRPWEAADGRTGAPNECRTCKCNGHADTCHFDVNVWEASGNRSGGVCNNCQHNTEGQHCQRCKPGFYRDLRRPFSAPDACKACSCHPVGSAILPFSSVTFCDPSNGDCPCKPGVAGPHCDRCMVGYWGFGDYGCRPCDCAGSCDPLTGDC
notes: lacks domain C); Two alternative constructs were cloned: one with an N-terminal His8 tag, one with an N-terminal double Strep II tag (not both on one chain); the tag was removed by thrombin; also called netrin-4; wild-type Net4; source: HEK293, stably transfected, purified (streptactin-sepharose or nickel TALON beads, thrombin digestion, SEC); not shown: double Strep II, N-terminal, cleaved; …
- binding [1]: binds

B2: MBP-Net4-ΔC (domain or fragment, UniProt Q9JI33 20-462)
chain: LNGVAGANSRCEKACNPRMGNLALGRKLRADTMCGQNATELFCFYSENADLTCRQPKCDKCNAAHSHLAHPPSAMADSSFRFPRTWWQSAEDVHREKIQLDLEAEFYFTHLIMVFKSPRPAAMVLDRSQDFGKTWKPYKYFATNCSATFGLEDDVVKKGAICTSRYSNPFPCTGGEVIFRALSPPYDIENPYSAKVQEQLKITNLRVRLLKRQSCPCQINDLNAKPHHFMHYAVYDFIVKGSCFCNGHADQCLPVEGFRPIKAPGAFHVVHGRCMCKHNTAGSHCQHCAPLYNDRPWEAADGRTGAPNECRTCKCNGHADTCHFDVNVWEASGNRSGGVCNNCQHNTEGQHCQRCKPGFYRDLRRPFSAPDACKACSCHPVGSAILPFSSVTFCDPSNGDCPCKPGVAGPHCDRCMVGYWGFGDYGCRPCDCAGSCDPLTGDC
- binding [2]: binds

B3: full-length Net4 (Net4-FL) (natural protein, Mus musculus, UniProt Q9JI33 20-628, looked up)
chain: LNGVAGANSRCEKACNPRMGNLALGRKLRADTMCGQNATELFCFYSENADLTCRQPKCDKCNAAHSHLAHPPSAMADSSFRFPRTWWQSAEDVHREKIQLDLEAEFYFTHLIMVFKSPRPAAMVLDRSQDFGKTWKPYKYFATNCSATFGLEDDVVKKGAICTSRYSNPFPCTGGEVIFRALSPPYDIENPYSAKVQEQLKITNLRVRLLKRQSCPCQINDLNAKPHHFMHYAVYDFIVKGSCFCNGHADQCLPVEGFRPIKAPGAFHVVHGRCMCKHNTAGSHCQHCAPLYNDRPWEAADGRTGAPNECRTCKCNGHADTCHFDVNVWEASGNRSGGVCNNCQHNTEGQHCQRCKPGFYRDLRRPFSAPDACKACSCHPVGSAILPFSSVTFCDPSNGDCPCKPGVAGPHCDRCMVGYWGFGDYGCRPCDCAGSCDPLTGDCISSNADVDWYHEVPAFHSMHNKSEPSWEWEDEQGFSALRHSGKCECKEQVLGNPKAFCGMKYSYVLKIKILSAHDKGSHAEVNVKIKKVLKSTKLKILRGKRTLYPESWTNRGCTCPILNPGLEYLVAGHEDVRTGKLIVNMKSFVQHWKPALGRRVMHILKRDCV
notes: also called netrin-4; wild-type Net4; source: HEK293, stably transfected, purified (streptactin-sepharose, thrombin digestion, SEC); not shown: double Strep II, N-terminal, cleaved
- binding [3]: no binding (tested: 50 nM)
- binding [4]: no binding (tested: 50 nM)
- binding [5]: no binding (tested: 50 nM)
